The labels stand for the following.
B1: CAACGUG (DNA:RNA)
RNA: GGGAGACCGGAAUUCAGAUUGUCCCAACGUGUUAAAUCCCGUCGUAGCCACCA
DNA 1: CAATCTGAATTCCGGTCTCCC
DNA 2: TGGTGGCTACGACGGGATT
B2: UGAUUCU (DNA:RNA)
RNA: B1 RNA with C25U, A26G, C28U, G29U, U30C, G31U
DNA 1: CAATCTGAATTCCGGTCTCCC
DNA 2: TGGTGGCTACGACGGGATT
B3: GUGGUAA (DNA:RNA)
RNA: GGGAGACCGGAAUUCAGAUUGUCCGUGGUAAUUAAAUCCCGUCGUAGCCACCA
DNA 1: CAATCTGAATTCCGGTCTCCC
DNA 2: TGGTGGCTACGACGGGATT
B4: ACAGUCA (DNA:RNA)
RNA: B3 RNA with G25A, U26C, G27A, A30C
DNA 1: CAATCTGAATTCCGGTCTCCC
DNA 2: TGGTGGCTACGACGGGATT
B5: AGGCUAG (DNA:RNA)
RNA: B3 RNA with G25A, U26G, G28C, A31G
DNA 1: CAATCTGAATTCCGGTCTCCC
DNA 2: TGGTGGCTACGACGGGATT
B6: GUCACCC (DNA:RNA)
RNA: B3 RNA with G27C, G28A, U29C, A30C, A31C
DNA 1: CAATCTGAATTCCGGTCTCCC
DNA 2: TGGTGGCTACGACGGGATT
B7: CAGAGAG (DNA:RNA)
RNA: B1 RNA with A27G, C28A, U30A
DNA 1: CAATCTGAATTCCGGTCTCCC
DNA 2: TGGTGGCTACGACGGGATT
B8: CUCCUAA (DNA:RNA)
RNA: B3 RNA with G25C, G27C, G28C
DNA 1: CAATCTGAATTCCGGTCTCCC
DNA 2: TGGTGGCTACGACGGGATT
B9: UCACGAA (DNA:RNA)
RNA: B1 RNA with C25U, A26C, U30A, G31A
DNA 1: CAATCTGAATTCCGGTCTCCC
DNA 2: TGGTGGCTACGACGGGATT
B10: GUUUAAC (DNA:RNA)
RNA: B3 RNA with G27U, G28U, U29A, A31C
DNA 1: CAATCTGAATTCCGGTCTCCC
DNA 2: TGGTGGCTACGACGGGATT
B11: CAACUGA (DNA:RNA)
RNA: B1 RNA with G29U, U30G, G31A
DNA 1: CAATCTGAATTCCGGTCTCCC
DNA 2: TGGTGGCTACGACGGGATT
B12: AUGCCCU (DNA:RNA)
RNA: B3 RNA with G25A, G28C, U29C, A30C, A31U
DNA 1: CAATCTGAATTCCGGTCTCCC
DNA 2: TGGTGGCTACGACGGGATT
B13: GCUAUUG (DNA:RNA)
RNA: B1 RNA with C25G, A26C, A27U, C28A, G29U
DNA 1: CAATCTGAATTCCGGTCTCCC
DNA 2: TGGTGGCTACGACGGGATT
B14: CCAGGAG (DNA:RNA)
RNA: B1 RNA with A26C, C28G, U30A
DNA 1: CAATCTGAATTCCGGTCTCCC
DNA 2: TGGTGGCTACGACGGGATT
B15: CGCACGA (DNA:RNA)
RNA: B1 RNA with A26G, A27C, C28A, G29C, U30G, G31A
DNA 1: CAATCTGAATTCCGGTCTCCC
DNA 2: TGGTGGCTACGACGGGATT
B16: UAGGACG (DNA:RNA)
RNA: B1 RNA with C25U, A27G, C28G, G29A, U30C
DNA 1: CAATCTGAATTCCGGTCTCCC
DNA 2: TGGTGGCTACGACGGGATT
B17: UACGUUG (DNA:RNA)
RNA: B1 RNA with C25U, A27C, C28G, G29U
DNA 1: CAATCTGAATTCCGGTCTCCC
DNA 2: TGGTGGCTACGACGGGATT
B18: CGUUGCA (DNA:RNA)
RNA: B1 RNA with A26G, A27U, C28U, U30C, G31A
DNA 1: CAATCTGAATTCCGGTCTCCC
DNA 2: TGGTGGCTACGACGGGATT
B19: AAACCAA (DNA:RNA)
RNA: B1 RNA with C25A, G29C, U30A, G31A
DNA 1: CAATCTGAATTCCGGTCTCCC
DNA 2: TGGTGGCTACGACGGGATT
B20: CGCUCUU (DNA:RNA)
RNA: B1 RNA with A26G, A27C, C28U, G29C, G31U
DNA 1: CAATCTGAATTCCGGTCTCCC
DNA 2: TGGTGGCTACGACGGGATT
B21: UGUGCCU (DNA:RNA)
RNA: B3 RNA with G25U, U26G, G27U, U29C, A30C, A31U
DNA 1: CAATCTGAATTCCGGTCTCCC
DNA 2: TGGTGGCTACGACGGGATT
B22: GACAAAU (DNA:RNA)
RNA: B3 RNA with U26A, G27C, G28A, U29A, A31U
DNA 1: CAATCTGAATTCCGGTCTCCC
DNA 2: TGGTGGCTACGACGGGATT
B23: GACCGGG (DNA:RNA)
RNA: B1 RNA with C25G, A27C, U30G
DNA 1: CAATCTGAATTCCGGTCTCCC
DNA 2: TGGTGGCTACGACGGGATT
B24: UUAACUC (DNA:RNA)
RNA: B1 RNA with C25U, A26U, C28A, G29C, G31C
DNA 1: CAATCTGAATTCCGGTCTCCC
DNA 2: TGGTGGCTACGACGGGATT
B25: GCCCUAC (DNA:RNA)
RNA: B3 RNA with U26C, G27C, G28C, A31C
DNA 1: CAATCTGAATTCCGGTCTCCC
DNA 2: TGGTGGCTACGACGGGATT
B26: AGAGUGU (DNA:RNA)
RNA: B3 RNA with G25A, U26G, G27A, A30G, A31U
DNA 1: CAATCTGAATTCCGGTCTCCC
DNA 2: TGGTGGCTACGACGGGATT
B27: GGUCUGC (DNA:RNA)
RNA: B3 RNA with U26G, G27U, G28C, A30G, A31C
DNA 1: CAATCTGAATTCCGGTCTCCC
DNA 2: TGGTGGCTACGACGGGATT
B28: AUCUAAC (DNA:RNA)
RNA: B3 RNA with G25A, G27C, G28U, U29A, A31C
DNA 1: CAATCTGAATTCCGGTCTCCC
DNA 2: TGGTGGCTACGACGGGATT
B29: GCAUCAU (DNA:RNA)
RNA: B3 RNA with U26C, G27A, G28U, U29C, A31U
DNA 1: CAATCTGAATTCCGGTCTCCC
DNA 2: TGGTGGCTACGACGGGATT
B30: AGGCAGG (DNA:RNA)
RNA: B1 RNA with C25A, A26G, A27G, G29A, U30G
DNA 1: CAATCTGAATTCCGGTCTCCC
DNA 2: TGGTGGCTACGACGGGATT
B31: UGAGCUA (DNA:RNA)
RNA: B1 RNA with C25U, A26G, C28G, G29C, G31A
DNA 1: CAATCTGAATTCCGGTCTCCC
DNA 2: TGGTGGCTACGACGGGATT

Residue numbers refer to the chain shown, from its start. Some of the results follow.

The target of this experiment is T1, RBFOX1 RRM RbFoxmut (Fox-RRM*) (Homo sapiens, UniProt Q9NWB1 109-208, R118D;E147R;N151S;E152T).
T1 sequence: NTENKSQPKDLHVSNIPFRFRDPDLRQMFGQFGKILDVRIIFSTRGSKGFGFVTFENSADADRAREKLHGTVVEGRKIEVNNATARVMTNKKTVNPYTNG
Description: EMSA; HiTS-Eq, 1 nM pool, 10 min; buffer printed only for the single-RNA assays: 10 mM Tris pH 7.5, 150 mM NaCl, 3.4 mM EDTA, 0.001% NP-40, 30 C. The conditions noted are these: tags: His6 N-terminal (pET28a); label: 5' 32P. The gist of the method: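 Purified RbFox RRM, wild type or mutant, was incubated for 10 min in 50 µL with 1 nM of a 5′-radiolabelled RNA pool carrying 7 randomized nucleotides, whose flanks were annealed to DNA oligonucleotides, over a series of increasing protein concentrations. Unbound RNA was resolved on 8% native PAGE, cut out, reverse-transcribed, barcoded by PCR and sequenced on an Illumina HiSeq 2500. Relative association constants were derived from changes in read counts for each RNA species versus the control reaction and normalised to the cognate motif.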
For orientation: In EMSA bound probe runs differently from free probe, usually more slowly.
As for B1, the binding signal was 0.115 KA relative to UGCAUGU.

Take B2: the binding signal was 0.115 KA relative to UGCAUGU.

With B3, the binding signal was 0.149 KA relative to UGCAUGU.

On to B4, for which the binding signal was 0.0922 KA relative to UGCAUGU.

As to B5, the binding signal is 0.107 KA relative to UGCAUGU.

For B6, the binding signal was 0.0629 KA relative to UGCAUGU.

On to B7, for which the binding signal is 0.108 KA relative to UGCAUGU.

As to B8, the binding signal is 0.0737 KA relative to UGCAUGU.

Take B9: the binding signal is 0.0781 KA relative to UGCAUGU.

For the molecule B10, the binding signal was 0.0991 KA relative to UGCAUGU.

In the case of B11, the binding signal was 0.0646 KA relative to UGCAUGU.

Consider B12, for which the binding signal is 0.0993 KA relative to UGCAUGU.

As for B13, the binding signal is 0.152 KA relative to UGCAUGU.

Consider B14, for which the binding signal is 0.134 KA relative to UGCAUGU.

As to B15, the binding signal was 0.23 KA relative to UGCAUGU.

For B16, the binding signal is 0.0685 KA relative to UGCAUGU.

As for B17, the binding signal is 0.0833 KA relative to UGCAUGU.

As to B18, the binding signal is 0.218 KA relative to UGCAUGU.

For the molecule B19, the binding signal was 0.0845 KA relative to UGCAUGU.

With B20, the binding signal was 0.0761 KA relative to UGCAUGU.

For the molecule B21, the binding signal was 0.113 KA relative to UGCAUGU.

For the molecule B22, the binding signal was 0.0678 KA relative to UGCAUGU.

Regarding B23, the binding signal is 0.0549 KA relative to UGCAUGU.

In the case of B24, the binding signal was 0.0749 KA relative to UGCAUGU.

As for B25, the binding signal was 0.084 KA relative to UGCAUGU.

B26: the binding signal is 0.16 KA relative to UGCAUGU.

On to B27, for which the binding signal is 0.134 KA relative to UGCAUGU.

Turning to B28, the binding signal is 0.096 KA relative to UGCAUGU.

Regarding B29, the binding signal is 0.313 KA relative to UGCAUGU.

Regarding B30, the binding signal was 0.117 KA relative to UGCAUGU.

As for B31, the binding signal was 0.11 KA relative to UGCAUGU.

The values are drawn from article PMC9911399, “Two distinct binding modes provide the RNA-binding protein RbFox with extraordinary sequence specificity”.
